About 14,000 (4.5%) of roughly 310,000 compounds showed an effect of 50% or more. The effect is printed as a negative number. This is one part of the list.
molecular target: human ether-à-go-go-related gene (hERG) potassium channel (human, UniProt Q12809); experiment: primary screen, population patch clamp on CHO cells stably expressing hERG
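Note: peak tail current of the secondary pulse compared with the same well before compound.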

Sequence of human ether-à-go-go-related gene (hERG) potassium channel (Q12809 whole entry, looked up): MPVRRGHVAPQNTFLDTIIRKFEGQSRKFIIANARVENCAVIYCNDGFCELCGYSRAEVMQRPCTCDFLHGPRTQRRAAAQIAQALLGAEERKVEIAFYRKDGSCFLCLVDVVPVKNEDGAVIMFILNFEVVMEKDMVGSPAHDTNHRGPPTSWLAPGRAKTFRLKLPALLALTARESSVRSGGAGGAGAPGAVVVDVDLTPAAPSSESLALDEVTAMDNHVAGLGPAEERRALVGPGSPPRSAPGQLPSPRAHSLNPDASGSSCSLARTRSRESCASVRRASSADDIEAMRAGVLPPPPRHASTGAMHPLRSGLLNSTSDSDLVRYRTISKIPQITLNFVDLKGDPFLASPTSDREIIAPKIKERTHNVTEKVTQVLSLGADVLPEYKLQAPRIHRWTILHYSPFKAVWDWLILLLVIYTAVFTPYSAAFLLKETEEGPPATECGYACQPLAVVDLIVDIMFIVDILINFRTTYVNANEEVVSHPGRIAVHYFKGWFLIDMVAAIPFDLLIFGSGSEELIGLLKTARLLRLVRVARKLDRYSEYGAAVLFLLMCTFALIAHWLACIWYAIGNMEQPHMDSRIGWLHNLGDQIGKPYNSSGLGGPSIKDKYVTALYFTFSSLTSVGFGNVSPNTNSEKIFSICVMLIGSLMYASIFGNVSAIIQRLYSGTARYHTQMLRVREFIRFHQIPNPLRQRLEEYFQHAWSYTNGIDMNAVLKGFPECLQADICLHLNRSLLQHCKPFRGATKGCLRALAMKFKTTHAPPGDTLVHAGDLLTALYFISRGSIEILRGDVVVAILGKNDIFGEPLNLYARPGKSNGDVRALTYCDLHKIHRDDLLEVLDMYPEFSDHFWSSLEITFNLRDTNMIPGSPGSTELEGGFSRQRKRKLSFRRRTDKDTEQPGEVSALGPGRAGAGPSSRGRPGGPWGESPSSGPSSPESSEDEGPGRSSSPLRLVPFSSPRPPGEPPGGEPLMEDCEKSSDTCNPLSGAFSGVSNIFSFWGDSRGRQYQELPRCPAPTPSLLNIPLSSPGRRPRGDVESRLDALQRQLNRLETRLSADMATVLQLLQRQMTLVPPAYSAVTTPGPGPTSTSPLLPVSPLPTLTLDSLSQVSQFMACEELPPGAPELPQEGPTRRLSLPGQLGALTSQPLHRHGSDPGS

SMILES | hERG current change (%, negative = inhibition) at 10uM [%]
Cc1cc(C)c2c(c1)/C(=N/NC(=O)c1cc(C)oc1C)CCC2 | 6.66
Cc1ccc(-n2nnnc2SCC(=O)Nc2ccc3c(c2)COC3=O)cc1C | 13.5
O=C(NCc1ccccc1OC(F)(F)F)C1CCC(=O)N(C2CC2)C1 (stereo not shown) | 4.55
O=C(Nc1ccc(S(=O)(=O)NC2=NCCCCC2)cc1)c1ccc(C(F)(F)F)cc1 | -25
Cc1cc(OCC(=O)NC(Cc2ccc(Cl)cc2)C(=O)O)c2c3c(c(=O)oc2c1)CCC3 (stereo not shown) | 15.4
CCC(C)CCN1C(N(C)C)=NC[C@@H]1Cc1ccccc1 (stereo partly shown) | -22.5
CC1CC2=C(CC1/C=N/NC(N)=S)C(C)(C)CCC2 (stereo not shown) | 1.92
COc1cc(C2CC(=O)c3c([nH]c(C(=O)OCCOC(C)C)c3C)C2)cc(OC)c1OC (stereo not shown) | -4.72
CCOC(=O)c1nn(-c2ccccc2)c(=O)cc1OCC(=O)Nc1ccccc1OCC | -8.25
Cc1ccc(N2C(=O)c3ccc(C(=O)N4CCOCC4)cc3C2=O)cc1C | -0.618
N#CC1=C2SCN(c3ccc(F)cc3)CN2C(=O)CC1c1cccc(F)c1 (stereo not shown) | 14.1
O=C(CCCN1C(=O)/C(=C\c2cccs2)SC1=S)Nc1ccc(C(=O)O)cc1 | 8.37
CCOC(=O)c1cc(CC)sc1NC(=O)COc1ccc2c(C)cc(=O)oc2c1 | 3.4
CC(C)OCCCNC(=O)c1c(N)n(Cc2cccs2)c2nc3ccccc3nc12 | -0.278
O=C(NCc1ccc(Cl)cc1)c1ccc(-c2ccccc2C(F)(F)F)o1 | 2.94
CCCc1cc(=O)[nH]c(Nc2ccc3c(c2)OCCO3)n1 | 23.8
COc1ccc2c(c1OC)C(=O)N1C2SC[C@H]1C(=O)NC1CCCCC1 (stereo partly shown) | -4.96
C#Cc1ccc(CN2CCC(N3CCC(C(=O)NCc4ccccn4)CC3)CC2)cc1 | -72.2
Cc1ccc(S(=O)(=O)/N=S(\C)CC2CC2(Cl)Cl)cc1 (stereo not shown) | 21.8
CCc1nnc(NC(=O)C(C)Sc2ccccc2)s1 (stereo not shown) | -13
CCOC(=O)c1cc2c(ccn2-c2ccc(F)cc2)n1CC(=O)N1CCN(C(=O)c2ccco2)CC1 | -26.1
O=C(Nc1ccc(S(=O)(=O)NCc2ccccc2)cc1)c1ccccc1[N+](=O)[O-] | 2.69

SMILES | hERG current change (%, negative = inhibition) at 10uM [%]
CC(=NCc1cccnc1)c1c(O)n(-c2ccc(Cl)cc2)c(=O)[nH]c1=O | 9.17
O=C(Cc1ccccc1)OCC(=O)c1ccccc1 | -3.19
O=C(OCc1csc(-c2ccccc2)n1)c1ccccc1O | 29.6
Cc1ccc(NC(=O)c2ccccc2-c2cc(C)no2)cc1 | -15.7
Cc1ccc(N2CC(C(=O)Nc3ccccc3C(=O)N3CCOCC3)CC2=O)cc1 (stereo not shown) | 14.9
COc1ccccc1Cn1c(=S)[nH]c2ccc(F)cc2c1=O | 17.6
Cc1csc(NC(=O)c2ccoc2C)n1 | -7.66
CC(C)(C)c1ccc(S(=O)(=O)N2CCCC2C(=O)NC2=NCCS2)cc1 (stereo not shown) | 2.21
Cc1nc(NCCc2ccc(S(N)(=O)=O)cc2)c2c3c(sc2n1)CCC3 | 8.64
Cc1ccc(CNC(=O)c2ccc(S(=O)(=O)Nc3c(C)n(C)n(-c4ccccc4)c3=O)cc2)cc1 | -26.6
Cc1[nH]c2ccccc2c1/C=N\NC(=O)c1ccco1 | 11.1
COc1ccc(CCNC(=O)COC(=O)c2ccc[nH]c2=O)cc1 | -0.656
O=C(OCc1cn(-c2ccc(Cl)cc2)nn1)c1ccccc1 | -2.52
CCOCCc1nnc(NC(=O)C(C)Oc2ccccc2)s1 (stereo not shown) | 8.79
O=C(CSc1nnnn1C1CCCC1)NCc1ccccc1 | -9.3
Cc1c(Cl)cccc1NC(=O)c1cc(-c2ccccc2O)n[nH]1 | -16.8
O=C1CC(c2ccccc2F)c2c(c3ccccc3[nH]c2=O)O1 (stereo not shown) | 22
O=C(CN1C(=O)CCC1=O)Nc1nc2c(F)cc(F)cc2s1 | -14.3
CCc1nn(CCCC(=O)Nc2ccc(C)c(C)c2)c(=O)c2cc3occc3n12 | 4.15
O=C(NCc1ccco1)c1nnc(Cc2ccc(Cl)cc2)o1 | -10.8
CC1(C)C2CCC(C2)C1(C)NC(=O)CNC1CCCCC1.Cl (stereo not shown) | 26.2
CCOc1ccc(/C=N/Nc2ccc(C(F)(F)F)cc2[N+](=O)[O-])cc1O | 9.74

SMILES | hERG current change (%, negative = inhibition) at 10uM [%]
Cc1ccc(C(=O)Oc2ccccc2N2C(=O)C3CCCCC3C2=O)cc1 (stereo not shown) | -14
C=CCOC(=O)C(C#N)c1nc2ccccc2nc1N1CCCC1 (stereo not shown) | 3.62
O=C(NNS(=O)(=O)c1ccccc1[N+](=O)[O-])c1ccncc1 | 10.5
Cc1ccc2nc(-c3ccncc3)cc(C(=O)N3CCOCC3)c2c1 | 0.929
CCNc1nc(CN2CCOCC2)nc2sc3c(c12)CCC3 | -7.54
CCOc1ccccc1N1CCN(C(=S)NCc2ccccc2)CC1 | 3.62
O=C(COC(=O)Cc1cccc(C(F)(F)F)c1)NCC1CCCO1 (stereo not shown) | 1.46
O=C(N/N=C1\C(=O)c2cccc3cccc1c23)c1ccc(O)cc1 | 8.35
COC(=O)c1[nH]nc(C(=O)OC(C)(C)C)c1-c1ccccc1 | -3.47
S=C(Nc1ccccc1)Nc1ccccc1Br | 10.3
CCn1nc(C)c([N+](=O)[O-])c1C(=O)NNC(=O)c1ccccc1Cl | 10.9
Cc1nc2ccccc2c(=O)n1NC(=O)c1ccc(Cl)c(Cl)c1 | 5.63
Cc1cc(NS(=O)(=O)c2ccc(Nc3nc(-c4ccc(C)c(C)c4)cs3)cc2)no1.Cl | -5.46
CC(C)c1ccc(N(CC(=O)NC2CCCC2)C(=O)CCC(=O)Nc2nccs2)cc1 | 18.4
O=C(O)C1CC=CCC1C(=O)NC12CC3CC(CC(C3)C1)C2 (stereo not shown) | 3.51
Cc1ccc(C(C)C)c(OCC(=O)OCC(=O)NC2CCS(=O)(=O)C2)c1 (stereo not shown) | 0.333
COc1ccc(C(=O)c2oc3ccc(OC)cc3c2N)cc1 | 9.31
FC(F)(F)C1=CC(c2ccccc2)=NCCN1 | 3.86
Cc1ccc(CNC(=O)C2CCN(S(=O)(=O)c3ccc4c(c3)OCCCO4)CC2)cc1 | 2.16
CC(=O)c1ccc(NC(=O)NC2CC(=O)N(c3ccc4c(c3)OCCO4)C2)cc1 (stereo not shown) | 6.57
O=C(O)c1ccc(N=N/C(=N\Nc2ccc(C(=O)O)cc2)c2ccccc2)cc1 | 7.16
CCOC(=O)c1c(C2COc3ccccc3O2)csc1N (stereo not shown) | -23.5

SMILES | hERG current change (%, negative = inhibition) at 10uM [%]
COc1ccc(Cc2nc3ccc(C(=O)N(C)CCCN4CCOCC4)cc3o2)cc1 | 10
CC(C)(C)NC(=O)CN(C(=O)CS(=O)CC(=O)Nc1ccc(F)cc1)c1ccccc1 (stereo not shown) | 5.7
Cc1c(NC(=O)Nc2cc(F)c(F)cc2Cl)c(=O)n(-c2ccccc2)n1C | 8.26
COC(=O)c1c(NC(=O)CN2CCN(Cc3ccc4c(c3)OCO4)CC2)sc(C)c1C.O=C(O)C(=O)O | -28.9
CCOc1ccccc1N1CCN(C(=O)c2ccc(-c3ccc(OC(C)=O)cc3)cc2)CC1 | 10.5
CCCCNC(=O)NS(=O)(=O)c1ccc(NC(=O)C(NC(N)=O)C(C)CC)cc1 (stereo not shown) | 11.7
COc1ccc(/C=C/C2=Nc3ccccc3NC(C)(C)C2)cc1OC | -49.4
O=C(Nc1ccc(NC(=O)c2ccco2)cc1)c1ccc2c(c1)OCCO2 | 3.52
COc1ccc(CCc2nnc(CCC(=O)N(C)Cc3ccncc3C)o2)cc1 | 2.58
CSc1ccccc1OCc1cc(C(=O)N2CCN3CCCC3C2)no1 (stereo not shown) | -3.75
CCOC(=O)C(C)Sc1nc(=O)n2cccc(C)c2n1 (stereo not shown) | -2.64
S=c1[nH]nc(COc2ccccc2)n1/N=C/c1ccc(Cl)cc1 | 22.4
CCc1nn(CC(=O)Nc2cc(C)ccc2C)c(=N)s1.Cl | 6.21
Cn1c(SCC(=O)Nc2ccc3c(c2)CCC3)nnc1C1CC1 | -18.6
O=C(CCNC(=O)c1ccccc1)NCCc1ccc(Cl)cc1 | 2.41
COc1ccc(/C=N/N=C(\N)c2nonc2N)cc1OC | -0.49
O=C(CSc1nnnn1-c1ccccc1)Nc1ncc(Cc2cc(Cl)ccc2Cl)s1 | 12.9
CCOc1cc(NC(=O)C2CC2)c(OCC)cc1NC(=O)c1cccc(F)c1 | 11.9
O/N=C1/CCCCc2sccc21 | -3.33
Cc1c(Cl)cccc1-n1cnc(=O)c2ccccc21 | -12.3
COc1ccc(OCC(=O)Nc2ccccc2C(=O)NC(C)C)cc1 | 11.9
N/C(=N\OC(=O)COc1ccc2ccccc2c1Br)c1cccnc1 | 12.9
